Screen size: about 48,000 compounds; about 120 (0.25%) were called active. Inconclusive results (about 4%) are left out. The call rests on the fitted dose curve; in most records, active means well fitted activation curve with a large enough effect; inconclusive means small, poorly fitted or top-dose-only effect, or another doubt; inactive means no such curve, though single readings can be large or run the other way. This is one part of the list.

The experiment is described as follows: Primary qHTS for Identification of Small Molecule Activators of Huntingtin-Antisense Promoter Activity. Further: nearly all actives have a fitted effect of over 55% in size. As to conditions: HEK293 HTT-AS promoter firefly luciferase reporter, 24 h; series mostly up to 57.5 µM; activity change, positive = activation: at the top concentration. The source says: Assay Provider: Russell L. Margolis M.D.
Department Neurology, Johns Hopkins University School of Medicine, Baltimore, MD
Huntington's Disease (HD) is a neurodegenerative disorder caused by a CAG repeat expansion in exon 1 of huntingtin (HTT). While there are currently no disease-modifying treatments for HD, recent efforts have focused on development of nucleotide-based therapeutics to lower HTT expression. As an alternative to siRNA or oligonucleotide methods, we hypothesized that suppression of HTT expression might be accomplished by small molecules that either (1) directly decrease HTT expression by suppressing HTT promoter activity or (2) indirectly decrease HTT expression by increasing the promoter activity of HTT-AS, the gene antisense to HTT that appears to inhibit expression of HTT.
We developed and employed a high throughput screen for modifiers of HTT and HTT-AS promoter activity using luminescent reporter HEK293 cells; of the 52,041 compounds tested, we identified 898 replicable hits. We used a rigorous stepwise approach to assess compound toxicity and the capacity of the compounds to specifically lower huntingtin protein in 5 different cell lines, including HEK293 cells, HD lymphoblastoid cells, mouse primary neurons, HD iPSCs differentiated into cortical-like neurons, and HD hESCs. We found no compounds which were able to lower huntingtin without lowering cell viability in all assays, though the potential efficacy of a few compounds at non-toxic doses could not be excluded.
SEQUENCE No. (1, 2, 3, etc.); […] (e.g., Cells, Incubation, Reagent, etc.); VALUE and DESCRIPTION.
1; Reagent; 4 uL; 2,500 Hek293 luciferase reporter cells per wells
3; Compound; 23 nL; Control inhibitor / compound library
5; Reagent; 2.5 uL; Firefly Luc reagent; Dual-Glo Luciferase Reporter Assay System (Promega)
6; Time; 10 min; room temperature incubation
7; Detection; Luminescence; FLuc
NOTES (numbers refer to sequence above)
1; High-throughput screening, measuring luminescence from a Hek293 luciferase reporter, was performed in 1,536 well white-walled tissue-culture treated plates. 2,500 cells were plated in 4 µL of Opti-MEM per well using a Multidrop Combi Reagent Dispenser (ThermoFisher).
2; Assay plates were cultured for 24 hours.
3; Control inhibitor (PTC124; final concentration of 50 uM) and compound library (at final concentrations of 460 nM - 57.5 uM) were added to the assay plate using the Kalypsis Pintool Robotic System equipped with 1536 pinheads.
4; Cells were then incubated for 24 hours at 37 degrees C prior to luminescence measurements.
5; In all cases, luminescence was measured using the Dual-Glo Luciferase Reporter Assay System (Promega) following the manufacturer's instructions.
6; Room temperature incubation.
7; Luminescence signal was obtained using the PerkinElmer ViewLux plate reader. Results were normalized to vehicle control (0% activity) and zero RLU (-100% activity).
As to `Cc1ccc(N2C(=O)CSC23C(=O)N(CC(=O)NC2CCCCC2)c2ccccc23)cc1C` (configuration not stated), the “activity change, positive = activation” value was inactive: -7.4%.

Take `Oc1c(Br)cc(Br)c2cccnc12`: the “activity change, positive = activation” value is inactive: -12%.

`Nc1nc(=O)n([C@@H]2O[C@H](CO)[C@@H](O)[C@@H]2F)cc1I`: the “activity change, positive = activation” value is inactive: -12.5%.

For the compound `CCOC(=O)c1c(C)oc2ncnc(Nc3cc(Cl)ccc3OC)c12`, the “activity change, positive = activation” value was inactive: -3.59%.

With `Cc1ccc2nc(COc3ccccc3NC(=O)COc3ccccc3Cl)cc(=O)n2c1`, the “activity change, positive = activation” value is inactive: -8.21%.

On to `CSc1ncc(C(=O)NCc2ccc(C)cc2)c(-c2ccccc2)n1`, for which the “activity change, positive = activation” value was inactive: -2.1%.

As to `Cc1ccc(CNC(=O)C2CCN(S(=O)(=O)c3c(C)noc3/C=C/c3c(C)cc(C)cc3C)CC2)cc1`, the “activity change, positive = activation” value is inactive: 6.15%.

Regarding `Cc1ccc(S(=O)(=O)C(CNC(=O)Cc2ccc(Cl)cc2)c2cccs2)cc1` (configuration not stated), the “activity change, positive = activation” value is inactive: -28.8%.

In the case of `CCOc1ccc(CNC(=O)c2ccc3c(c2)nnn3C2CCCC2)cc1`, the “activity change, positive = activation” value is inactive: 4.86%.

`Cc1cccc(Cn2c(=O)n(Cc3ccc4c(c3)OCO4)c(=O)c3oc4ccccc4c32)c1`: the “activity change, positive = activation” value was inactive: -13.8%.

`CCc1ccccc1NC(=O)c1cc2nc(-c3ccc(OC)c(OC)c3)cc(C(F)(F)F)n2n1`: the “activity change, positive = activation” value is inactive: -9.07%.

Consider `COc1ccccc1N1CCN(C(=O)Nc2cn(CC(C)C)c(=O)c3ccccc23)CC1`, for which the “activity change, positive = activation” value is inactive: -6.62%.

As to `CCOCCCNC(=O)c1c(NC(=O)c2cc(=O)c3ccccc3o2)sc2c1CCC2`, the “activity change, positive = activation” value is inactive: 2.85%.

`CC(C)C(=O)Nc1cccc(C(=O)Nc2nnc(CC(C)(C)C)s2)c1`: the activity change, positive = activation was inactive: 14.7% [at 11.5 µM, percent change from vehicle, -100% = no light].

With `COC(=O)c1ccc(NC(=O)Cn2c(=O)nc(-c3ccccc3)c3ccccc32)cc1`, the “activity change, positive = activation” value was inactive: -22.9%.

As for `COc1cc2ccccc2cc1C(=O)Nc1ccc2oc(-c3ccc(Cl)cc3)nc2c1`, the “activity change, positive = activation” value is inactive: -20.3%.

With `O=C(Nc1ccc(C(=O)OCc2cc(=O)n3c4c(sc3n2)CCCC4)cc1)c1ccc(Cl)cc1`, the “activity change, positive = activation” value is inactive: 2.57%.

With `CC(C)c1ccc(NC(=O)Nc2csc3c2CCCC3)cc1`, the “activity change, positive = activation” value was inactive: -30.4%.

`Cc1ccc2c(=O)cc(C(=O)Nc3c(C(=O)Nc4cccc(Cl)c4)oc4ccccc34)oc2c1`: the “activity change, positive = activation” value was inactive: -15.7%.

With `CCCCN(C)CC(O)Cn1cc(/C=C/C(=O)c2ccc(C)cc2)c2ccccc21` (configuration not stated), the “activity change, positive = activation” value was inactive: -28.8%.

Consider `COc1ccc(NC(=O)c2c(NCc3cccs3)sc3c2CCCC3)cc1`, for which the “activity change, positive = activation” value was inactive: -10.9%.

`Cc1ccc(-n2c(SCC(=O)Nc3ccc4c(c3)OCCO4)nc3c([nH]c4ccccc43)c2=O)cc1`: the “activity change, positive = activation” value is inactive: -12.8%.

For the compound `Cc1cccc(NS(=O)(=O)c2nnc(NC(=O)c3cccc(C)c3)s2)c1`, the “activity change, positive = activation” value is inactive: -10.3%.

In the case of `CCOC(=O)c1ccc(NC(=O)CN2CCCCC2)cc1`, the “activity change, positive = activation” value is inactive: 19.5%.

On to `Cc1ccc(OCC(=O)Nc2sc3c(c2C(N)=O)CCCC3)c(C(C)(C)C)c1`, for which the “activity change, positive = activation” value is inactive: -11.3%.

Consider `COCCNC(=O)c1ccc(-c2nc(CN3CCc4ccccc43)c(C)o2)cc1`, for which the “activity change, positive = activation” value was inactive: -34.4%.

Take `Cc1cccc(NC(=O)c2cc3c(=O)n4ccccc4nc3n2C)c1C`: the “activity change, positive = activation” value is inactive: -1.61%.

`CCCCNC(=O)Cn1cnc2sc(C)c(S(=O)(=O)N3CCN(c4ccccc4OC)CC3)c2c1=O`: the “activity change, positive = activation” value was inactive: 11.3%.

As for `Cc1csc2nc(COC(=O)c3ccc(NC(=O)C(C)C)cc3)cc(=O)n12`, the “activity change, positive = activation” value was inactive: -32.9%.

Regarding `COc1ccccc1NC(=O)c1ncoc1-c1ccco1`, the “activity change, positive = activation” value is inactive: 9.81%.

Take `CC(C)OCCCNC(=O)CN1C(=O)COc2ccc(S(=O)(=O)N3CCOCC3)cc21`: the “activity change, positive = activation” value was inactive: -12.8%.

Regarding `CC(CC(C#N)(c1ccccc1)C(C)C)N(C)C` (configuration not stated), the “activity change, positive = activation” value was inactive: -2.07%.

For `O=C(Cn1ncc2c3ccccc3n(Cc3ccccc3F)c2c1=O)NCCCc1ccccc1`, the “activity change, positive = activation” value is inactive: -26.6%.

For the compound `COC(=O)c1ccccc1NC(=O)CSc1nc2nc(C)cc(C)n2n1`, the “activity change, positive = activation” value was inactive: -5.18%.

Take `CCOc1ccccc1C(=O)N(Cc1ccco1)Cc1ccccc1F`: the “activity change, positive = activation” value is inactive: -23.9%.

Take `Cc1ccc(C(=O)Nc2ccc(Br)cc2)cc1S(=O)(=O)NCc1ccccc1`: the “activity change, positive = activation” value is inactive: -40.5%.

For the compound `CC(C)C[C@H](NC(=O)[C@H](Cc1ccccc1)NC(=O)c1cnccn1)B(O)O`, the “activity change, positive = activation” value is inactive: -21.4%.

As to `CCOc1ccccc1CNC(=O)CCCN1C(=O)c2cccnc2Oc2ccc(Cl)cc21`, the “activity change, positive = activation” value is inactive: -22.9%.

As for `COc1ccccc1Cn1c(SCC(=O)C(C)(C)C)nc2ccccc2c1=O`, the “activity change, positive = activation” value is inactive: -18.1%.

As for `CCNC(=O)C1CCN(Cc2cc3ccccc3n2Cc2ccc(C)cc2)CC1`, the “activity change, positive = activation” value is inactive: -27.2%.

In the case of `CCOC(=O)c1c(C)oc2nc(C)nc(N3CCN(c4ccc(OC)cc4)CC3)c12`, the “activity change, positive = activation” value was inactive: -42.4%.

In the case of `COC(=O)CN1C(C(=O)c2ccccc2)=C(OC(=O)c2ccc(C)cc2)c2ccccc2S1(=O)=O`, the “activity change, positive = activation” value is inactive: -21.4%.

Regarding `Clc1cccc(CSc2ccc(-c3cccs3)nn2)c1`, the “activity change, positive = activation” value is inactive: 16.8%.

As for `O=C(c1cccn1-c1nnc(N2CCCCC2)s1)N1CCN(c2ccccc2)CC1`, the “activity change, positive = activation” value is inactive: -9.04%.

With `CCn1c(=O)c2sccc2n2c(CCC(=O)NCc3ccc(Cl)cc3)nnc12`, the “activity change, positive = activation” value was inactive: -8.43%.

Take `N#Cc1ccc(CSc2nnc(-c3ccc(Br)cc3)o2)cc1`: the “activity change, positive = activation” value was inactive: 1.59%.

Regarding `CCS(=O)(=O)c1ccccc1C(=O)N1CCN(c2nc3ccccc3s2)CC1`, the “activity change, positive = activation” value is inactive: -44.4%.

The record behind these values is PubChem BioAssay AID1508624 (National Center for Advancing Translational Sciences (NCATS), 2021).
